In PubChem BioAssay AID485294 (National Center for Advancing Translational Sciences (NCATS), 2010):
Out of some 370,000 compounds screened, about 150 (0.041%) were called active. Inconclusive results, whose numbers are uncertain, are shown with a selection of clear calls. Calls follow the shape of the dose curve; as a rule, active = well fitted inhibition curve with a large enough effect; inconclusive = small, poorly fitted or top-dose-only effect; inactive = flat fitted curve, though single readings scatter. No potency is given beside an inconclusive call; the fits are too rough.

target: Beta-lactamase (Escherichia coli (strain K12)) (UniProt P00811); experiment: qHTS Inhibitors of AmpC Beta-Lactamase (assay with detergent); settings: AmpC hydrolysis of nitrocefin, absorbance 480 nm, 0.01% Triton; activity change, negative = inhibition: at 114 µM (top of the series); also: nearly all actives have a fitted effect of over 25% in size;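 as to activity change, negative = inhibition: 0% = no-compound wells and -100% = no-enzyme wells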
Method in brief: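 20 mM phosphate pH 7.0 + 0.01% (detergent screen) or 0.0001% Triton X-100; 5.3 nM AmpC reagent; cpd preinc 15 min RT; nitrocefin (800 uM stock) to start; A480 q20 s × 4 min; Activity was normalised to no-enzyme and no-compound control wells.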
Potency is read from the fitted curve at half-maximal effect; tags tell the direction and shape of the fitted curve.

Sequence of UniProt P00811 (P00811 whole entry, looked up): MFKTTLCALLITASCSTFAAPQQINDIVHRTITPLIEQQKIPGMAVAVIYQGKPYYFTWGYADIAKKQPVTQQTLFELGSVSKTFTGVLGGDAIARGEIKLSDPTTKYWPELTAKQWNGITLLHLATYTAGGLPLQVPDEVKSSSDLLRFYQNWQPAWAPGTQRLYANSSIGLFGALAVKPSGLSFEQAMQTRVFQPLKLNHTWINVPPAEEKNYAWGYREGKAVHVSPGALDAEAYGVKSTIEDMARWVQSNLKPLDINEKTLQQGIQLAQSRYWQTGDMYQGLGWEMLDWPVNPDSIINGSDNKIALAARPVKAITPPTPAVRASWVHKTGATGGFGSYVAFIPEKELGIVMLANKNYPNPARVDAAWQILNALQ

| SMILES | activity change, negative = inhibition | Potency |
| --- | --- | --- |
| CC(C)OCCCNc1ccc(N2C(=O)CCCC2=O)cc1[N+](=O)[O-] | inactive: -5.43% | – |
| O=C(C[N+]1(CC#Cc2ccccc2)CCOCC1)c1ccc(Cl)cc1 | inactive: 12.6% | – |
| CCN(CC)S(=O)(=O)c1cccc(NC(=O)/C=C/c2ccc([N+](=O)[O-])cc2)c1 | – | inconclusive [inhibitor, full curve, poor fit] |
| CCOC(=O)C(C)Sc1nc(-c2ccco2)cc(C(F)(F)F)c1C#N (configuration not stated) | – | inconclusive [inhibitor, full curve, poor fit] |
| Cc1ccc(S(=O)(=O)C(F)(F)F)cc1NC(=O)c1cccnc1 | – | inconclusive [inhibitor, partial curve, poor fit] |
| COc1ccc(OC)c(Nc2nc(-c3ccc(O)c(O)c3)cs2)c1 | – | inconclusive [inhibitor, full curve, poor fit] |
| O=C(NCc1ccccc1F)C1CCCN(C(=O)Nc2ccccc2)C1 (configuration not stated) | – | inconclusive [inhibitor, single point] |
| CC(OC(=O)c1ccc(NS(=O)(=O)c2ccc3[nH]c(=O)[nH]c3c2)cc1)C(=O)Nc1ccc(Cl)cc1 (configuration not stated) | inactive: -12.9% | – |
| CCOc1ccc(NC(=O)Cn2c(=O)nc(-c3ccccc3)c3ccccc32)cc1 | inactive: 4% | – |
| CCOc1ccc(C(=O)NCC(=O)OCc2cc([N+](=O)[O-])cc3c2OCOC3)cc1OCC | – | inconclusive [inhibitor, full curve] |
| CCN(CC)S(=O)(=O)c1cc(NC(=O)CNc2cccc(S(=O)(=O)N3CCCC3)c2)ccc1C | – | inconclusive [inhibitor, full curve, poor fit] |
| COc1ccc(Cl)c2sc(N(CCN(C)C)C(=O)CCS(=O)(=O)c3ccc(C)cc3)nc12 | – | inconclusive [inhibitor, partial curve] |
| O=[N+]([O-])c1ccccc1OCCCOc1cccc2cccnc12 | – | inconclusive [inhibitor, partial curve, poor fit] |
| CCN(CC)S(=O)(=O)c1ccc(NS(=O)(=O)c2cccc(C)c2)cc1 | – | inconclusive [inhibitor, partial curve, poor fit] |
| CC(=O)N(C(C)=O)c1cccc2c(N(C(C)=O)C(C)=O)cccc12 | – | inconclusive [inhibitor, single point] |
| COc1ccc(C(=O)OC2C[C@H]3CC[C@H](C2)N3C)cc1OC (some centres not stated) | inactive: -25.3% | – |
| CN(C)c1ccc(/C=C2/C(=O)NC(=O)N(Cc3ccco3)C2=O)cc1 | inactive: -12.1% | – |
| CCC1COCCS(=O)(=O)N1Cc1ccc(F)cc1 (configuration not stated) | – | inconclusive [inhibitor, full curve] |
| Fc1cccc(F)c1/C=N/NC(=S)Nc1cccnc1 | – | inconclusive [inhibitor, partial curve] |
| Cc1ccccc1CCNC(=O)C1CC(O)CN1C(=O)Nc1ccccc1 (configuration not stated) | – | inconclusive [inhibitor, full curve, poor fit] |
| Cc1ccc(/C=N/N(C)C2=NS(=O)(=O)c3ccccc32)o1 | inactive: -5.04% | – |
| CC(=O)c1sc(NC(=O)CN2C(=O)C3CC=CCC3C2=O)nc1-c1ccccc1 (configuration not stated) | – | inconclusive [inhibitor, partial curve] |
| Cc1occc1C(=O)NN=C1C2CC3CC(C2)CC1C3 | inactive: -12.2% | – |

| SMILES | activity change, negative = inhibition | Potency |
| --- | --- | --- |
| COC(=O)c1sc(N)c(C(=O)OC)c1COC(=O)C1CC(=O)N(Cc2ccco2)C1 (configuration not stated) | inactive: -14.3% | – |
| Cc1cccc(C)c1NC(=O)CN(C)C(=O)c1ccc2nc[nH]c2c1 | – | inconclusive [inhibitor, partial curve, poor fit] |
| Cc1ccc2c(CNCCc3ccco3)c(C(=O)O)n(Cc3ccc(F)cc3)c2c1 | inactive: -0.207% | – |
| O=C(Nc1ccc(Br)cc1)C(c1ccccc1)c1ccccc1 | – | inconclusive [inhibitor, full curve, poor fit] |
| CCOc1ccc(CN(CCc2ccc3c(c2)OCO3)Cc2cc(OC)cc(OC)c2)cc1 | inactive: 7.8% | – |
| Cc1ccc(CCC(=O)Nc2ccc([N+](=O)[O-])cc2)o1 | – | inconclusive [inhibitor, partial curve, poor fit] |
| Cc1ccc(/C=N/NC(=O)C(C)Oc2cccc3ccccc23)o1 (configuration not stated) | – | inconclusive [inhibitor, full curve] |
| O=C(CN1CCC(C(=O)c2ccc(F)cc2)CC1)NCc1ccccc1F | inactive: 8.61% | – |
| CC(=O)Nc1ccc(S(=O)(=O)N2CCC(n3c(C)nc4cccnc43)CC2)cc1 | inactive: 3.79% | – |
| CCCNC(=O)CSc1ccc(S(=O)(=O)N2CCCCC2)cn1 | – | inconclusive [inhibitor, full curve, poor fit] |
| O=c1c2ccccc2[nH]c(=S)n1CCN1CCN(Cc2ccccc2)CC1 | – | inconclusive [inhibitor, full curve, poor fit] |
| CC(=O)C1=NN(c2ccccc2)C(c2ccc3c(c2)OCO3)N1c1ccccc1 (configuration not stated) | inactive: -11.3% | – |
| COc1ccc(/C=C/C(=O)NC(=S)Nc2ccccc2C(=O)NC2CCCCC2)cc1 | – | inconclusive [inhibitor, partial curve, poor fit] |
| CC1=C(C(=O)NCc2cccc(Cl)c2)C2(CCCCCC2)OC1=O | inactive: -3.39% | – |
| Cc1ccc(-c2cc(C(=O)N3CCCCCC3)no2)cc1 | inactive: -1.82% | – |
| CC(C)(C)c1cc(C(c2cccnc2)N2CCN(CCO)CC2)cc(C(C)(C)C)c1O (configuration not stated) | – | inconclusive [inhibitor, single point] |
| Nc1cc2c(cc1Cl)N(Cc1ccccc1)C(=O)CO2 | – | inconclusive [inhibitor, full curve, poor fit] |
| O=c1c2ccccc2sn1-c1ccc(S(=O)(=O)N2CCCC2)cc1 | – | inconclusive [inhibitor, partial curve, poor fit] |
| Cc1ccc2c(C)nc(NC3=NCN(CCc4ccccc4)CN3)nc2c1 | – | inconclusive [inhibitor, partial curve] |
| Cc1cc(Oc2ccc(-c3ccccc3)cc2)n2ncnc2n1 | inactive: -12% | – |
| CN(CC(=O)Nc1ccc(Cl)c(C(F)(F)F)c1)C(=O)Cc1c[nH]c2ccccc12 | – | inconclusive [inhibitor, full curve] |
| C=CC1C(N2CCOCC2)C(C)(C)S1(=O)=O (configuration not stated) | – | inconclusive [inhibitor, full curve] |
| COc1ccc2c(c1)c(C(=O)N/N=C/c1ccc(O)c(O)c1)c(C)n2C | – | inconclusive [inhibitor, single point] |

| SMILES | activity change, negative = inhibition | Potency |
| --- | --- | --- |
| CCCCn1c(SCC(=O)N2CCCCC2C)nc2cc(S(N)(=O)=O)ccc21 (configuration not stated) | – | inconclusive [inhibitor, full curve, poor fit] |
| CC(=O)c1sc(N/N=C\c2ccc(N(C)C)cc2)nc1C | – | inconclusive [inhibitor, full curve, poor fit] |
| Cc1ccc(-n2c([C@@H]3C[C@H]3c3ccccc3)n[nH]c2=S)cc1 | – | inconclusive [inhibitor, single point] |
| CC1CCN(C(=O)COC(=O)Cc2c[nH]c3ccccc23)CC1 | – | inconclusive [inhibitor, full curve, poor fit] |
| O=C(Cn1cccc1C(=O)c1ccccc1)NCCN1CCOCC1 | – | inconclusive [inhibitor, single point] |
| CC1=CC2=NC(=O)/C(=C\c3ccc(-c4ccc(Cl)cc4)o3)C(=N)N2O1 | – | inconclusive [inhibitor, partial curve, poor fit] |
| Cc1ccc(CN2CCCN(Cc3ccc(F)cc3Cl)S2(=O)=O)cc1 | – | inconclusive [inhibitor, single point] |
| NC(=O)c1ccc(F)cc1 | – | inconclusive [inhibitor, full curve, poor fit] |
| O=C1C2C(C(=O)N1c1ccc3c(c1)OCO3)C1C=CC2C12CC2 (configuration not stated) | – | inconclusive [inhibitor, partial curve] |
| CCSc1nnc(NC(=O)c2cc(C)oc2C)s1 | – | inconclusive [inhibitor, single point] |
| Nc1cc(=O)[nH]c(SCc2ccccc2Cl)n1 | – | inconclusive [inhibitor, full curve, poor fit] |
| O=C(O)CC(=O)Nc1ccc(Oc2ccc(C(F)(F)F)cn2)c(Cl)c1 | – | inconclusive [inhibitor, partial curve, poor fit] |
| CC(=O)Nc1ccc(S(=O)(=O)Nc2ccc(Cc3ccncc3)cc2)cc1 | – | inconclusive [inhibitor, full curve, poor fit] |
| Cc1ccccc1-c1nc(CS(=O)(=O)CC(=O)NCCCN2CCN(C)CC2)c(C)o1 | – | inconclusive [inhibitor, single point] |
| Cc1cccc(/C=C2\Oc3cc(OS(C)(=O)=O)ccc3C2=O)c1 | – | inconclusive [inhibitor, full curve, poor fit] |
| Nc1c(C(=O)CSc2nccn2-c2ccc(Cl)cc2)c(=O)[nH]c(=O)n1C1CC1 | inactive: -4.92% | – |
| C[C@@H](NC(=O)c1[nH]cnc1C(=O)Nc1nccs1)c1ccccc1 | inactive: 3.71% | – |
| O=S(=O)(NCCS(=O)(=O)N1CCN(c2ccccc2)CC1)c1ccc(F)cc1 | – | inconclusive [inhibitor, single point] |
| C/C(=N/Nc1ccccc1C(=O)O)c1cccs1 | – | inconclusive [inhibitor, partial curve, poor fit] |
| CSCCC(NC(=O)c1ccccc1Br)C(=O)NCC(c1ccco1)N1CCCCC1 (configuration not stated) | inactive: -7.18% | – |
| CCCOc1ccc(-c2c(C(=O)N/N=C/c3cccnc3)nnn2-c2nonc2N)cc1 | – | inconclusive [inhibitor, single point] |
